From the supplement of paper PMC4466236
The full ranking holds about 33,000 sequences; the median of “E-score (dimensionless, -0.5 to 0.5)” is about -0.058, and the highest 2% start at about 0.35. This is one part of the list.

tested on: MvaT; experiment: PBM 8-mer E-score (mean of HK and ME arrays) (E-score (dimensionless, -0.5 to 0.5)); higher = stronger relative binding preference; most listed sequences are background and not binding sites
Protocol: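 Protein binding microarray: GST-tagged full-length MvaT (P. aeruginosa PAO1) bound to two universal double-stranded 60-mer arrays (ME and HK), each with a constant 25-mer primer and a variable 35-mer region covering all 8-mers. The 8-mer E-score (rank-based, range -0.5 to 0.5, >0.45 = specific binding) is the mean of the two arrays.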

Sequence	PBM 8-mer E-score
GCCGAGAA	-0.0283
AGTTTCTA	0.202
CTCCAAAA	0.0625
CAAGCACC	-0.251
CTTACCTA	0.0935
GACTCGAC	-0.214
TCGATTAA	0.199
AGTGCGCC	-0.0307
CGGCTATA	0.051
AACCCCTT	-0.084
CTAGCGCC	-0.248
ACCACACG	-0.063
GCCTGGTA	-0.257
CATGGAGG	-0.231
GGTCTAAC	-0.0173
CCGTGACG	-0.163
AATTGGCG	0.126
AGGGGAAA	-0.075
AACTGCGC	0.00232
AAGATTGT	0.0798
ATTACTCC	0.177
GTAGCCAC	-0.227
GATGATGA	-0.0331
AAGATTTG	0.0664
CAACGTCC	-0.219

Sequence	PBM 8-mer E-score
CTATTTGC	0.148
GAGTAGGA	0.0177
CAACTAGA	0.0954
AAGATATC	0.26
GCGGCTTA	-0.112
GTCAAATA	0.254
CTTATATA	0.452
CGCACTTC	-0.0964
AAATTACA	0.274
CCTCGTTA	-0.0811
ACTATGCG	0.0353
CACGGCTC	-0.206
GCGTACAA	-0.0805
ACTCAGCG	-0.133
GGGCAAGA	-0.193
CTCGCATC	-0.222
AGCATGAA	-0.0151
ATGACCTC	-0.244
AATGGTCT	-0.112
GATTAGAA	0.0708
CCGTTTAC	0.031
CATGTACA	0.267
CTTCAGAC	-0.00427
CTATGTTA	0.278
CACATGGG	-0.172

Sequence	PBM 8-mer E-score
AGCATCCC	-0.152
AGACCGAT	-0.0871
GTTGGGGA	-0.0857
AGTGGGTA	-0.0364
TCTCCGCA	-0.146
CACGCAGA	-0.0444
TATGGGAA	0.0221
AAAAACGA	0.0516
ACTACAAC	0.215
AGTCTGCG	-0.171
GAAGCGTC	-0.252
GAACGGGC	-0.247
CCTCCTCG	-0.333
CAGGTACC	-0.0981
CGAGAACG	-0.141
AGGGATCC	-0.298
ATGTCGCG	-0.0528
AGCACGAG	-0.163
GGTATCAA	0.075
GAAGAACC	-0.175
AATGAATT	0.267
GCGAGACC	-0.166
ACTTGTTC	0.122
GCTGACCA	-0.148
ACAGGACC	-0.0728

Sequence	PBM 8-mer E-score
CCTCCCGC	-0.218
CAAGATAG	-0.0279
GGTACAGA	-0.239
CCTTAATA	0.298
GATGCATA	0.174
ACTGGTGA	0.037
CCCCCCCA	-0.319
CACTCTCC	-0.0607
GACCGCGA	-0.295
CCACTCAC	0.0164
CATCCTGC	-0.257
GCGATTAC	-0.0538
AACCTTTC	-0.0237
ATTGTCGG	0.0413
GCGTGAGA	-0.05
ATTTTTGC	0.0753
AACCAGCA	0.0722
CTAGAGCC	-0.266
CCACAACC	-0.1
AAGAGAGT	0.0484
CGGAAAAG	0.00958
CAAGTTGG	0.00932
ATCCCATA	0.0362
CCCGACAC	-0.106
ATACTGCG	0.0537

Sequence	PBM 8-mer E-score
AGTCACAA	0.0341
CATGGTCC	-0.257
CATGCGGC	-0.25
ATAGCAAA	0.178
GTATGAGA	0.00287
GCAAGCCC	-0.328
CCAAGCGA	-0.251
AAGCGCGG	-0.118
ATGAGGAA	-0.166
CGTTCTCA	0.0642
CCCTTAGA	-0.128
TGACACAA	0.117
AATGTGTC	0.195
CCATCCCA	-0.188
ACTACGCA	-0.105
CAGAGAGC	-0.291
AACGGGCC	-0.215
CAACCATC	-0.215
GGTTCGAC	-0.0729
ATCTCCCC	-0.2
AGTGCATA	0.0813
ATGGGTCA	-0.0598
ACAAATTA	0.35
CAACTGGA	-0.0318
GATGCGCC	-0.206

Sequence	PBM 8-mer E-score
AAGAATTG	-0.0115
TGAGCCAA	-0.318
GACACACC	-0.0993
CTATGCAC	0.0725
ACGCTAGC	-0.157
ATGGGAGC	-0.25
TAGCCATA	0.0758
GCTAGAAA	0.0651
CTCACACA	-0.0758
GAATGTCA	-0.014
CCAGACCA	-0.225
AGAATTAC	0.282
GGTAGACA	-0.0528
ATCTCTTA	0.144
CTGCTGCC	-0.132
AAGCAGCT	-0.177
AGAGTCCC	-0.105
ATGTGCAC	-0.0183
GTGGAGTA	0.0449
ACGTCTCG	-0.206
CATTAATA	0.369
AATAGAGA	0.217
GCATAGAA	-0.00205
CAAGCGAG	-0.22
CATCCCCA	-0.229

Sequence	PBM 8-mer E-score
ACGAACGG	-0.25
CCGCGCGC	-0.161
AACCGTGG	0.0669
ACCCAGTA	-0.0124
AAACTCGG	-0.0569
ACCTCCTG	-0.344
ACCCTGGG	-0.267
CATCAGCC	-0.216
GATCAAGA	-0.0768
AATGAAAC	0.172
AACGCGGG	-0.165
CACCGAGG	-0.213
CATGATCA	-0.141
TAAGAGTA	0.249
CCAGAGGC	-0.282
CTGCATTA	0.194
GGACTGGA	-0.181
AGGCTATA	-0.0511
ACCTGGGG	-0.366
CCGCTTAA	0.141
CGACGCCC	-0.293
AGACGCCA	-0.205
